Test results from patent US7410975B2, “Small molecule toll-like receptor (TLR) antagonists” (Coley Pharmaceutical Group, Inc., priority 2003, dated 2008).
Counter-ions that a name gives are not always drawn.

Molecular target: T1, human TLR7 (hTLR7) (Homo sapiens, UniProt Q9NYK1)
T1 construct: expressed in transfected cells
T1 sequence (Q9NYK1 27-1049): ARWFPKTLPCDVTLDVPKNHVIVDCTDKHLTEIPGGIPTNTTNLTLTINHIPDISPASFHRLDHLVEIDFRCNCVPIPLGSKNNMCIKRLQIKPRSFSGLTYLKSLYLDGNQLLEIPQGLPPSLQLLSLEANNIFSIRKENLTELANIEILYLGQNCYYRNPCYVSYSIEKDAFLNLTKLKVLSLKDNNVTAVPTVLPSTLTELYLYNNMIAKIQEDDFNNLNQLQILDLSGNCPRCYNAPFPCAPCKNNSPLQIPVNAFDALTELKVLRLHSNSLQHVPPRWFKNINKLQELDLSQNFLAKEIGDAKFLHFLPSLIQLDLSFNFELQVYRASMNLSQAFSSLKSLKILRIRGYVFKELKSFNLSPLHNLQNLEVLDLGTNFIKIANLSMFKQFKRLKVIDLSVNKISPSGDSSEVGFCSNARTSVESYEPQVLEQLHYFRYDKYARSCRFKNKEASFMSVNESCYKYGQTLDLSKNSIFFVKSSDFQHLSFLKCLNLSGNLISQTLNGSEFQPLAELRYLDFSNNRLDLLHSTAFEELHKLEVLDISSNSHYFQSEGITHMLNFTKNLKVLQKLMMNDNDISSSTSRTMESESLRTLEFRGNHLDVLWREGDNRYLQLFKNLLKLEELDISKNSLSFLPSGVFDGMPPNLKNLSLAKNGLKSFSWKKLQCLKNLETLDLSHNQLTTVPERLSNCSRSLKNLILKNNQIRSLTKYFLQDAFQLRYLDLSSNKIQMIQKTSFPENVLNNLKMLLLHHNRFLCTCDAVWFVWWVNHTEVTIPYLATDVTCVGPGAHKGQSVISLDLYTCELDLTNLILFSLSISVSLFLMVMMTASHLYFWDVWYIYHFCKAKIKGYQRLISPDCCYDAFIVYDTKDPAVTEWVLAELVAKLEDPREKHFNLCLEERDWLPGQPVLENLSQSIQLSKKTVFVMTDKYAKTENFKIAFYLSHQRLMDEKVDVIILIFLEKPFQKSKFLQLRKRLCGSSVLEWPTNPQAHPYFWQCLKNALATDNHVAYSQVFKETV
Assay: Antagonist screen, hTLR7-NFκB-293 cells, NF-κB-luciferase reporter, with EC50 of R848
Type: cell-based
Details: compound at 0.5, 5, 50 μg/ml, EC50 concentration of R848, 16 h
Procedure: The method is described in greater detail as follows. The cells for each individual cell clone (hTLR3-NFκB-293, hTLR7-NFκB-293, hTLR8-NFκB-293 and hTLR9-NFκB-293) were counted and seeded one day before the stimulation at 1.5×10^4 cells per well in 96-well cell culture plates. To become adherent the cells were incubated after seeding overnight at 37° C. in 5% CO2 humidified air.
The screen for each compound was performed at the same time for all of the receptors TLR3, TLR7, TLR8 and TLR9. Up to fifteen test compounds, each assayed in duplicate at each of three different final concentrations (0.5 μg/ml, 5 μg/ml, and 50 μg/ml), were used for 16 h cell stimulation on a single multiwell culture plate. A 4× final concentration master plate was created to prepare the different test compounds before they were added to the cells.
Controls were added as duplicates individually for each cell clone on the cell culture plate. Positive controls were used as follows (final concentrations): 50 μg/ml poly(I:C) for hTLR3-NFκB-293; 8 μM resiquimod (R848) for hTLR7-NFκB-293; 30 μM R848 for hTLR8-NFκB-293; and 2.5 μM CpG-ODN 2006 for hTLR9-NFκB-293. Media alone was used as negative control. After addition of controls and small molecules, the cell clones were additionally stimulated with the EC50 concentration of the appropriate receptor-specific ligand. […]
The baseline result (measured with addition of the EC50 concentration of the receptor-specific ligand) for each cell culture plate was measured as described above. Antagonistic effects were measured by down regulation compared to the baseline. Antagonists were scored as follows: • 13: compounds for which there was clear down regulation at 0.5 μg/ml, 5 μg/ml, and 50 μg/ml; • 12: compounds for which there was clear down regulation at 5 μg/ml and 50 μg/ml; • 11: compounds for which there was clear down regulation only at 50 μg/ml; • —: compounds for which there was no clear down regulation even at 50 μg/ml. […]
Results were expressed as fold induction over baseline luciferase activity measured in the absence of R848. […]

Structure (SMILES) | hTLR7 (inhibitory effect, antagonist score)
CN1CCN2c3ccccc3Cc3ccccc3C2C1.Cl (stereo not drawn) [compound 99, Mianserinehydrochloride] | — (compounds for which there was no clear down regulation even at 50 μg/ml)
Cc1ccccc1C(OCCN(C)C)c1ccccc1 (stereo not drawn) [compound 239, Orphenadrinehydrochloride] | — (compounds for which there was no clear down regulation even at 50 μg/ml)
CN1CCC[C@@H]1CCO[C@](C)(c1ccccc1)c1ccc(Cl)cc1.O=C(O)/C=C/C(=O)O [compound 306, Clemastine fumarate] | 12 (compounds for which there was clear down regulation at 5 μg/ml and 50 μg/ml)
